Experimental findings from ChEMBL document CHEMBL5308541, “MAIP: An Open-Source Tool to Enrich High-Throughput Screening Output and Identify Novel, Druglike Molecules with Antimalarial Activity” (ACS Med Chem Lett, 2023) are described below.

Screen size: about 150,000 compounds; about 540 (0.36%) showed an effect of 50% or more. The list shows a part of the results.

The test system of this assay is Plasmodium falciparum. Briefly: Primary screen in NF54 nanoGlo assay, in single point, at 2uM, 72h; a lower Z score goes with more inhibition. It is filed as functional, Erythrocyte. Particulars: timepoint 72 hour.
For `CNc1ccc(-c2cccc(C(=O)N[C@H]3CCCN(c4ncccn4)C3)c2)cc1`, the “% Inhibition” value is given as -7% and the Z score is recorded as 1.36.
The like results for `Cn1cc(-c2ccnc(NCc3cccc(OC4CC4)c3F)n2)cn1` were, in that order, -13% and 2.31.
The like results for `COc1ccc(-c2cncc(C(=O)NCC3CCN(CCN(C)C)CC3)c2)cc1` were, in that order, 94% and -16.22.
`Cc1cccc(Nc2ccnc(Nc3ccc(N4CCN(C)CC4)cc3)n2)c1`: the “% Inhibition” value is 89% and the Z score was -13.46.
The like results for `C[C@H](O)CN(C)C1CCN(C(=O)c2ccc3c(c2)nc(C(F)F)n3C)CC1` were, in that order, -14% and 2.97.
The like results for `CC(=O)c1[nH]c(C)c(C(=O)N2CCN3C(COCC3c3ccccc3)C2)c1C` (centres undefined) were, in that order, -3% and 0.48.
As for `COc1ccc2cc(-c3cc(N)ccn3)[nH]c2c1`, the “% Inhibition” value came to 54% and the Z score was -11.7.
Turning to `CN1CC2(CCNCC2)C[C@H]1C(=O)NC1CCN(Cc2ccccc2)CC1`, the “% Inhibition” value was determined as 3% and the Z score is given as -0.61.
On the same counts, the results for `Cn1c(=O)c(-c2nc3cc(N4CCOCC4)ccc3[nH]2)c(Cl)c2cc(Cl)ccc21` are -19% and 2.96.
On the same counts, the results for `O=c1c(C(F)(F)F)cc(-c2ccccc2)nn1Cc1csc(Nc2ccccc2)n1` are -15% and 2.24.
On the same counts, the results for `COc1cccc(CNc2nc(CN3CCN(C(C)C)CC3)nc3ccc(Cl)cc23)c1OC` are 6% and -1.09.
Turning to `Cc1nn(C)c(Oc2ccc(Cl)cc2)c1-c1nc2cc(C#N)ccc2[nH]1`, the “% Inhibition” value is -2% and the Z score came to 0.29.
The like results for `C1Cc2nc(NC3CC3)nc(N3CCC(c4nnn[nH]4)CC3)c2CCN1` were, in that order, -11% and 1.9.
The like results for `Cc1ccn2cc(-c3ccc(N4CCC(NCc5cccnc5)CC4)cc3)nc2c1` were, in that order, 40% and -6.85.
On the same counts, the results for `c1c[nH]c(-c2cncc(-c3ccc4c(c3)CCN4)c2)n1` are -10% and 1.81.
On to `COc1n[nH]c(NC(=O)C2C3CCC(CC3)C2C(F)(F)F)n1` (centres undefined), for which the “% Inhibition” value was 3% and the Z score was -0.44.
On the same counts, the results for `C(CN1CCC(N2CCCC2)C1)CN1CCC(N2CCCC2)C1` (centres undefined) are 4% and -0.81.
On the same counts, the results for `OCC1CCN(Cc2ccccc2NC2CCN([C@H]3CCOC3)CC2)CC1` are -6% and 0.88.
With `Cn1cc(-c2nc(C(=O)N(c3cccc(N4CCCC4)c3)C3CCCCCC3)cs2)cn1`, the “% Inhibition” value was -1% and the Z score is 0.25.
The like results for `CN(C)CCN1CCC(NC(=O)NCC2CCN(c3ccncc3)CC2)CC1` were, in that order, 3% and -0.56.
On the same counts, the results for `Cc1cnc(NCc2ccc3c(c2)CCCO3)nc1N(C)C` are -6% and 1.14.
On the same counts, the results for `CC(=O)c1[nH]c(C)c(C(=O)N2CCC[C@H](CNC(=O)c3cncc(F)c3)C2)c1C` are -2% and 0.41.
Consider `CO[C@@H]1C[C@H](CNC(=O)c2cnc3[nH]ccc3c2)N(c2ccncn2)C1`, for which the “% Inhibition” value is recorded as -7% and the Z score was 1.39.
The like results for `CS(=O)(=O)CCN1CCC(Nc2nc3ccc(F)cc3o2)CC1` were, in that order, 2% and -0.33.
On the same counts, the results for `CC(C)Oc1cc(NC[C@H]2CCNC2)ncn1` are -4% and 0.8.
On the same counts, the results for `C[C@@H](CNc1nc2ccccc2[nH]1)c1nccs1` are 0% and 0.04.
Regarding `Nc1nc(N2CCOCC2)cc(N2CCC([C@H](O)c3ccccn3)CC2)n1`, the “% Inhibition” value is reported as -16% and the Z score is on record as 2.41.
The like results for `CN(Cc1nc2ccc(F)cc2[nH]1)C(=O)c1cc(-c2ccsc2)[nH]n1` were, in that order, -3% and 0.56.
The like results for `CN1CCN(CCCNC2CCCC2Cc2ccccc2)CC1` (centres undefined) were, in that order, 13% and -2.22.
For `Cc1ccc(-n2[nH]c(C(=O)Nc3ccc4[nH]c(-c5ccc(F)cc5)nc4c3)cc2=O)cc1`, the “% Inhibition” value was -5% and the Z score is reported as 0.94.
`CC(=O)N[C@H]1CCN(C(=O)c2cccc(-c3cnc4[nH]c(C)nc4c3)c2)C1`: the “% Inhibition” value is -17% and the Z score is 2.98.
For `CN1CCN(CCCNc2ncnc3cc[nH]c23)CC1`, the “% Inhibition” value is 1% and the Z score is listed as -0.12.
On the same counts, the results for `Cc1nn(C(C)C)c(C)c1S(=O)(=O)N1CC[C@H](Oc2nccnc2C#N)C1` are 0% and 0.07.
For `CN(C)C1CN(S(=O)(=O)N2CCC(C)(C)CC2)CC1O` (centres undefined), the “% Inhibition” value came to 3% and the Z score is -0.44.
On the same counts, the results for `Cc1noc(C)c1[C@@H](C)CNS(=O)(=O)c1ccc(C(=O)O)cc1` are -11% and 1.64.
The like results for `c1ccc(C2(CNc3nc4ccccc4[nH]3)CCC2)nc1` were, in that order, 1% and -0.19.
On the same counts, the results for `CS(=O)(=O)N1CCc2ccc(C(=O)NCCN3CCC(N4CCCCC4)CC3)cc21` are 4% and -0.62.
For `COCc1cc(NC(=O)NC2C(C)C(OC)C2(C)C)ncn1` (centres undefined), the “% Inhibition” value is on record as -6% and the Z score is listed as 0.91.
On the same counts, the results for `CCN(Cc1noc(C)n1)C(=O)Nc1ccccc1CCC(=O)NC` are -10% and 1.73.
On to `Cc1cc(F)ccc1S(=O)(=O)NC1COCC1CS(=O)(=O)N(C)C` (centres undefined), for which the “% Inhibition” value came to 0% and the Z score was -0.1.
The like results for `C[C@@H](Cn1cccn1)n1cnc(-c2ccccc2)c1-c1cnc2ccccc2c1` were, in that order, -1% and 0.2.
On the same counts, the results for `CO[C@H]1C[C@H]2CC(NCCCNc3ccccc3)C[C@H]2C1` (some centres undefined) are -1% and 0.08.
The like results for `c1ccc2c(N3CCN(Cc4cc(CN5CCCC5)cs4)CC3)nsc2c1` were, in that order, -2% and 0.44.
Take `CC(CN1CCOCC1)N1CCC(Oc2ccnc(CN(C)C)c2)C1` (centres undefined): the “% Inhibition” value was found to be 5% and the Z score is -1.09.
For the compound `CCN1CCOC(CNC(=O)C2CCCC(C(=O)O)C2)C1c1cnn(C)c1` (centres undefined), the “% Inhibition” value came to 0% and the Z score is -0.09.
The like results for `O=C(NCCN1CCC(N2CCCCC2)CC1)c1cc2n(n1)C[C@@H](Oc1ccncc1)C2` were, in that order, 1% and -0.13.
The like results for `COCC(O)CN1CCC(NC2CCCNc3ccccc32)CC1` (centres undefined) were, in that order, -7% and 1.28.
On to `COC[C@H](C)/N=C(\N)NCc1ccc(OC)c(C(=O)OC)c1`, for which the “% Inhibition” value was -2% and the Z score is 0.38.
The like results for `Cc1nc(N2CCC(Nc3ncc(Cl)cn3)CC2)cc(C(F)(F)F)n1` were, in that order, 6% and -1.28.
On the same counts, the results for `CCc1nnc(-c2ccc(NCc3cccc4[nH]ccc34)cc2)o1` are -5% and 0.85.
On the same counts, the results for `CN(Cc1ccncn1)C1CCN(c2ccc(-c3cccc(F)c3)cc2)CC1` are -3% and 0.55.
For the compound `N#Cc1ccc(N2CCN(c3nccc4ccc(F)cc34)CC2)nc1`, the “% Inhibition” value is on record as -2% and the Z score was determined as 0.31.

As usually defined, the % Inhibition is the relative decrease from the control value, in per cent.
